# Assay results as given in patent US10723764B2, “Anti-microbial peptides and methods of use thereof” (priority 2011, dated 2020).
# Part of at least one peptide drawing is inferred or uncertain, most often the ends. Where a SMILES comes first, the peptide text is derived from it. Where no end group is shown, it is not given here. [ ]: non-standard residue; d: D form. Phe(4-CF3) = N[C@@H](Cc1ccc(C(F)(F)F)cc1)C(=O)O; Bip = N[C@@H](Cc1ccc(-c2ccccc2)cc1)C(=O)O; 2Nal = N[C@@H](Cc1ccc2ccccc2c1)C(=O)O
# Tests used:
# [1] = Peptide hydrophobicity by reverse-phase HPLC retention time; type: physicochemical; conditions: for tR (min), HPLC retention time of the peptide: Table 10; for tR: reverse-phase HPLC, Table 8; for tRP (min), HPLC retention time of the peptide (hydrophobicity): Vydac C18, acetonitrile 5% to 95%, 1 ml/minute
# pUC19 DNA plasmid = test: DNA gel retardation; type: binding; conditions: peptide at 6 and 12 μM, 75 ng pUC19, 1% agarose gel
# S. aureus USA300 [2] = test: Killing kinetics / real time killing of S. aureus USA300; type: cell-based, Staphylococcus aureus
# S. aureus USA300 [3] = test: Membrane permeation by flow cytometry (TO-PRO3 dye); type: cell-based, Staphylococcus aureus; conditions: 80 μM peptide
# P. aeruginosa PAO1 = test: Killing kinetics of P. aeruginosa PAO1; type: cell-based, Pseudomonas aeruginosa; conditions: ~10^6 colony forming units
# E. faecium ATCC51559 = type: cell-based, Enterococcus faecium
# Description: (§1) The antibacterial activities of the peptides were determined using the standard broth microdilution method (Mishra et al. (2012) J. Am. Chem. Soc., 134:12426-12429; Wang et al. (2005) Biol. Chem., 280:5803-5811). Briefly, the bacterial culture was treated with a series of peptide solutions, each with two-fold dilution. After overnight incubation at 37° C., the microplate was read on a ChroMate® 4300 Microplate Reader at 630 nm (GMI, Ramsey, Minn.).
# A. baumannii B2367-12 = type: cell-based, Acinetobacter baumanii
# Description: as §1
compound,measurement,setting,value
"CC(C)C[C@H](NC(=O)[C@H](CC(N)=O)NC(=O)[C@H](CCCNC(=N)N)NC(=O)[C@@H](CC(C)C)NC(=O)[C@H](Cc1ccccc1)NC(=O)[C@H](CC(=O)O)NC(=O)[C@H](CCCCN)NC(=O)[C@@H](CC(C)C)NC(=O)[C@H](CCCNC(=N)N)NC(=O)[C@H](CCC(N)=O)NC(=O)[C@@H](NC(=O)[C@@H](CC(C)C)NC(=O)[C@H](CCCNC(=N)N)NC(=O)[C@H](CCCCN)NC(=O)[C@H](Cc1ccccc1)NC(=O)CN)C(C)C)C(=O)N[C@H](C(N)=O)C(C)C [A128A, GX1KRLVQRLKDX2LRNLV-amide] (H-GFKR[dL]VQR[dL]KDF[dL]RNLV-NH2)","tR (min), HPLC retention time of the peptide",[1],9.95 min
same,tR,[1],9.95 min
same,DNA retardation,pUC19 DNA plasmid,did not bind to DNA
GVVPVVSVVGKVV-NH2 (C-terminus assumed) [DFTamP1-pv],"tRP (min), HPLC retention time of the peptide (hydrophobicity)",[1],12.364 min
same,real time bacterial killing of MRSA USA300,"S. aureus USA300 [2]; 0, 1, 2, or 8×MICs of DFTamP1, 37° C.",unable to kill MRSA even at a concentration 32-fold of the MIC of DFTamP1
"CC(C)C[C@H](NC(=O)[C@H](CC(N)=O)NC(=O)[C@H](CCCNC(=N)N)NC(=O)[C@@H](CC(C)C)NC(=O)[C@H](Cc1ccccc1)NC(=O)[C@H](CC(=O)O)NC(=O)[C@H](CCCCN)NC(=O)[C@@H](CC(C)C)NC(=O)[C@H](CCCNC(=N)N)NC(=O)[C@H](CCC(N)=O)NC(=O)[C@@H](NC(=O)[C@@H](CC(C)C)NC(=O)[C@H](CCCNC(=N)N)NC(=O)[C@H](CCCCN)NC(=O)[C@H](Cc1ccc(-c2ccccc2)cc1)NC(=O)CN)C(C)C)C(=O)N[C@H](C(N)=O)C(C)C [C128A, GX1KRLVQRLKDX2LRNLV-amide] (H-G[Bip]KR[dL]VQR[dL]KDF[dL]RNLV-NH2)","tR (min), HPLC retention time of the peptide",[1],10.55 min
same,tR,[1],10.55 min
same,DNA retardation,pUC19 DNA plasmid,retarded DNA to a similar degree
same,"membrane permeation, TO-PRO3 fluorescence increase",S. aureus USA300 [3],comparable to GF-17
"CC(C)C[C@H](NC(=O)[C@H](CC(N)=O)NC(=O)[C@H](CCCNC(=N)N)NC(=O)[C@@H](CC(C)C)NC(=O)[C@H](Cc1ccc(-c2ccccc2)cc1)NC(=O)[C@H](CC(=O)O)NC(=O)[C@H](CCCCN)NC(=O)[C@@H](CC(C)C)NC(=O)[C@H](CCCNC(=N)N)NC(=O)[C@H](CCC(N)=O)NC(=O)[C@@H](NC(=O)[C@@H](CC(C)C)NC(=O)[C@H](CCCNC(=N)N)NC(=O)[C@H](CCCCN)NC(=O)[C@H](Cc1ccc(-c2ccccc2)cc1)NC(=O)CN)C(C)C)C(=O)N[C@H](C(N)=O)C(C)C [D128A, GX1KRLVQRLKDX2LRNLV-amide] (H-G[Bip]KR[dL]VQR[dL]KD[Bip][dL]RNLV-NH2)","tR (min), HPLC retention time of the peptide",[1],11.26 min
same,tR,[1],11.26 min
same,time to eliminate S. aureus USA300,S. aureus USA300 [2]; ~10^6 colony forming units,90 min
same,time to eliminate P. aeruginosa PAO1,P. aeruginosa PAO1,30 min
same,DNA retardation,pUC19 DNA plasmid,trapped in the wells
same,"membrane permeation, TO-PRO3 fluorescence increase",S. aureus USA300 [3],comparable to GF-17
"CC(C)C[C@H](NC(=O)[C@H](CC(N)=O)NC(=O)[C@H](CCCNC(=N)N)NC(=O)[C@@H](CC(C)C)NC(=O)[C@H](Cc1ccc2ccccc2c1)NC(=O)[C@H](CC(=O)O)NC(=O)[C@H](CCCCN)NC(=O)[C@@H](CC(C)C)NC(=O)[C@H](CCCNC(=N)N)NC(=O)[C@H](CCC(N)=O)NC(=O)[C@@H](NC(=O)[C@@H](CC(C)C)NC(=O)[C@H](CCCNC(=N)N)NC(=O)[C@H](CCCCN)NC(=O)[C@H](Cc1ccccc1)NC(=O)CN)C(C)C)C(=O)N[C@H](C(N)=O)C(C)C [17F-Naph, GX1KRLVQRLKDX2LRNLV] (H-GFKR[dL]VQR[dL]KD[2Nal][dL]RNLV-NH2)","tR (min), HPLC retention time of the peptide",[1],10.56 min
same,MIC (μM) EF,E. faecium ATCC51559,3.1 µM
same,MIC (μM) AB,A. baumannii B2367-12,3.1 µM
same,DNA retardation,pUC19 DNA plasmid,retarded DNA to a similar degree
"CC(C)C[C@H](NC(=O)[C@H](CC(N)=O)NC(=O)[C@H](CCCNC(=N)N)NC(=O)[C@@H](CC(C)C)NC(=O)[C@H](Cc1ccc2ccccc2c1)NC(=O)[C@H](CC(=O)O)NC(=O)[C@H](CCCCN)NC(=O)[C@@H](CC(C)C)NC(=O)[C@H](CCCNC(=N)N)NC(=O)[C@H](CCC(N)=O)NC(=O)[C@@H](NC(=O)[C@@H](CC(C)C)NC(=O)[C@H](CCCNC(=N)N)NC(=O)[C@H](CCCCN)NC(=O)[C@H](Cc1ccc(C(F)(F)F)cc1)NC(=O)CN)C(C)C)C(=O)N[C@H](C(N)=O)C(C)C [17mF-Naph, GX1KRLVQRLKDX2LRNLV] (H-G[Phe(4-CF3)]KR[dL]VQR[dL]KD[2Nal][dL]RNLV-NH2)","tR (min), HPLC retention time of the peptide",[1],10.99 min
LLGSLLKLLPKLL-NH2 [Temporin-PTa8L],"tRP (min), HPLC retention time of the peptide (hydrophobicity)",[1],15.427 min
FFGKVLKLIRKIF-NH2 [DASamP1],"tRP (min), HPLC retention time of the peptide (hydrophobicity)",[1],14.923 min
FFGSLLKLLPKLL-NH2 [Temporin-PTa6L],"tRP (min), HPLC retention time of the peptide (hydrophobicity)",[1],15.393 min
CC[C@@H](C)[C@@H](NC(=O)[C@@H](CCCCN)NC(=O)[C@H]1CCCN1C(=O)[C@H](NC(=O)[C@@H](CC(C)C)NC(=O)[C@@H](CCCCN)NC(=O)[C@@H](CC(C)C)NC(=O)[C@H](NC(=O)[C@@H](CO)NC(=O)CNC(=O)[C@@H](Cc1ccccc1)NC(=O)[C@H](N)Cc1ccccc1)C(C)C)[C@H](C)CC)C(=O)N[C@H](CC(C)C)C(N)=O [Temporin-PTa (D-form)],"tRP (min), HPLC retention time of the peptide (hydrophobicity)",[1],14.483 min
"CC[C@H](C)[C@H](NC(=O)[C@H](CCCCN)NC(=O)[C@@H]1CCCN1C(=O)[C@@H](NC(=O)[C@H](CC(C)C)NC(=O)[C@H](CCCCN)NC(=O)[C@H](CC(C)C)NC(=O)[C@@H](NC(=O)[C@H](CO)NC(=O)CNC(=O)[C@H](Cc1ccccc1)NC(=O)[C@@H](N)Cc1ccccc1)C(C)C)[C@@H](C)CC)C(=O)N[C@@H](CC(C)C)C(N)=O [Temporin-PTa, reference compound]","tRP (min), HPLC retention time of the peptide (hydrophobicity)",[1],14.498 min
"CC(C)C[C@H](NC(=O)[C@H](CC(N)=O)NC(=O)[C@H](CCCNC(=N)N)NC(=O)[C@@H](CC(C)C)NC(=O)[C@H](Cc1ccc(C(F)(F)F)cc1)NC(=O)[C@H](CC(=O)O)NC(=O)[C@H](CCCCN)NC(=O)[C@@H](CC(C)C)NC(=O)[C@H](CCCNC(=N)N)NC(=O)[C@H](CCC(N)=O)NC(=O)[C@@H](NC(=O)[C@@H](CC(C)C)NC(=O)[C@H](CCCNC(=N)N)NC(=O)[C@H](CCCCN)NC(=O)[C@H](Cc1ccc2ccccc2c1)NC(=O)CN)C(C)C)C(=O)N[C@H](C(N)=O)C(C)C [17Naph-mF, GX1KRLVQRLKDX2LRNLV] (H-G[2Nal]KR[dL]VQR[dL]KD[Phe(4-CF3)][dL]RNLV-NH2)","tR (min), HPLC retention time of the peptide",[1],10.94 min
GLLPLLSLLGKLL-NH2 (C-terminus assumed) [DFTamP1-p],"tRP (min), HPLC retention time of the peptide (hydrophobicity)",[1],18.716 min
"CC(C)C[C@H](NC(=O)[C@H](CC(N)=O)NC(=O)[C@H](CCCNC(=N)N)NC(=O)[C@@H](CC(C)C)NC(=O)[C@H](Cc1ccccc1)NC(=O)[C@H](CC(=O)O)NC(=O)[C@H](CCCCN)NC(=O)[C@@H](CC(C)C)NC(=O)[C@H](CCCNC(=N)N)NC(=O)[C@H](CCC(N)=O)NC(=O)[C@@H](NC(=O)[C@@H](CC(C)C)NC(=O)[C@H](CCCNC(=N)N)NC(=O)[C@H](CCCCN)NC(=O)[C@H](Cc1ccc(C(F)(F)F)cc1)NC(=O)CN)C(C)C)C(=O)N[C@H](C(N)=O)C(C)C [B128A, GX1KRLVQRLKDX2LRNLV-amide] (H-G[Phe(4-CF3)]KR[dL]VQR[dL]KDF[dL]RNLV-NH2)","tR (min), HPLC retention time of the peptide",[1],10.32 min
same,tR,[1],10.32 min
